PubChem BioAssay AID938 (National Center for Advancing Translational Sciences (NCATS), 2007)
Values joined by “and” are separate entries in the source; they are usually repeats but may differ in a detail not shown here. Identical values can stand only once. The whole screen tested about 73,000 compounds, of which about 1,800 (2.5%) were called active. This list was built around the results that the source calls inconclusive (neither active nor inactive); the mix of calls is not that of the screen. The call rests on the fitted dose curve; in most records, active means well fitted activation curve with a large enough effect; inconclusive means small, poorly fitted or top-dose-only effect; inactive means no such curve, though single readings can be large or run the other way. Where the call is inconclusive, the potency comes from a doubtful curve fit.

Assay: qHTS Assay for Agonists of the Thyroid Stimulating Hormone Receptor: Activators of Intracellular cAMP Concentrations in Parental HEK 293; further: nearly all actives have a fitted effect of over 55% in size; on activation: % of control where 0% means no effect
Conditions: parental HEK293 CNG cAMP sensor, membrane potential fluorescence; activation: at 57.1 µM (top of the series) unless noted
How it was run: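 Counterscreen for endogenous-receptor signalling: CNG-channel HEK 293 cells report cAMP rise by membrane depolarization. After 60 min dye equilibration with 100 uM RO 20-1724, compounds incubated 30 min before bottom-read fluorescence at 590 nm.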
Potency means the concentration at half of the fitted maximal effect; tags describe the fitted curve by direction and shape.

Compound | Potency | activation
CCCc1noc2c1/C(=N\O)CC(CC(C)SCC)C2 (stereo not drawn) | inactive | –
CC(C)C(=O)NC(c1ccco1)c1ccc2cccnc2c1O (stereo not drawn) | inconclusive: 15.8 µM [activator, partial curve] | –
COc1ccccc1OCC(=O)N(Cc1nc(-c2ccc(Cl)cc2)no1)C(C)C | inconclusive: 20 µM [activator, single point] | –
Nc1c(C(=O)NCc2ccco2)nnn1Cc1ccccc1 | inconclusive: 5.01 µM [activator, full curve] | –
COc1ccc(C(=O)c2coc3ccc(O)c(CN(C)C)c23)cc1 | active: 31.6 µM | –
Cc1cc2ccc(=O)oc2cc1OC[C@@H](O)C(C)(C)O | inactive | –
CCC(=O)Nc1ccccc1N1CCN(S(C)(=O)=O)CC1 | inactive | –
CCOC(=O)CSc1nnc(CNc2ccc(F)cc2)o1 | inconclusive: 25.1 µM [activator, single point] | –
CCOC(=O)Cn1nc(-c2ccccc2)nc1-c1ccccc1 | inconclusive: 10 µM [activator, partial curve] | –
CCOCCCn1c(=S)[nH]c2cc(C(=O)N3CCN(C)CC3)ccc2c1=O | inconclusive: 6.31 µM [activator, full curve, poor fit] | –
COC(=O)c1ccc(C(NC(=O)OCc2ccccc2)/C(F)=C/[C@@H](C)C(=O)NCCc2c[nH]c3ccc(OC)cc23)cc1 (stereo partly drawn) | inconclusive: 3.16 µM [activator, single point] | –
CC(=O)Nc1nc2c(ncn2COCCOC(C)=O)c(=O)[nH]1 | inconclusive: 6.31 µM [activator, single point] | –
CCN(Cc1ccccc1)Cc1cc(OC)cc(OC)c1 | active: 5.01 µM | –
O=C(CCN1C(=O)c2ccccc2C1=O)NC1=NCCS1 | inconclusive: 31.6 µM [activator, single point] | –
CCC(C)NC(=O)CCC(=O)Nc1ccc2nc(N3CCOCC3)cc(C)c2c1 (stereo not drawn) | inactive | –
CN1CCN(S(=O)(=O)c2cccc(C(=O)NC3CCCc4ccccc43)c2)CC1 (stereo not drawn) | inconclusive: 3.98 µM [activator, single point] | –
Cn1c(SCC(=O)N2CCCCCC2)nc2c([nH]c3ccccc32)c1=O | inconclusive: 15.8 µM [activator, partial curve] | –
CC(C)CN1CC[C@@]2(CCCN(C(=O)c3cnccn3)C2)C1 | inactive | –
CCCCCCC1/C(=N/O)CCC1C(=O)OC (stereo not drawn) | inconclusive: 0.316 µM [activator, full curve] | –
Cc1ccc(-c2cn(S(=O)(=O)c3cccc4nsnc34)nc2N)cc1 | inactive | –
CCOC(=O)C1=C(CSc2nc(C)ccc2C#N)OC(N)=C(C#N)C1c1cccc(OC)c1OC (stereo not drawn) | inactive | –
COc1ccc(Nc2nc3ccccc3nc2C)cc1 | inactive | –
Cc1nn(C(=O)c2cc3sccc3[nH]2)c(C)c1C | inconclusive: 15.8 µM [activator, partial curve] | –
COc1ccc(C)cc1Cn1c(S(C)(=O)=O)nc2ccccc21 | inconclusive: 31.6 µM [activator, single point] | –
CCOC(=O)c1cnn(-c2cc(C)c3ccccc3n2)c1N | inconclusive: 25.1 µM [activator, partial curve] | –

Compound | Potency | activation
CCOC(=O)c1cc(-c2ccc(F)cc2)n(CC(=O)N2CCCC2)c1C | inconclusive: 12.6 µM [activator, partial curve] | –
Cc1nn(-c2nc3ccccc3n2Cc2ccccc2)c2c1C(=O)CC(C)(C)C2 | inconclusive: 1.26 µM [activator, partial curve] | –
CCNc1nc(SCCOc2ccccc2)nc(N(C)C)n1 | inconclusive: 1.58 µM [activator, partial curve] | –
CSc1nsc(NC(=O)Cc2ccccc2)n1 | inconclusive: 31.6 µM [activator, single point] | –
Cc1[nH]c2ccc(-c3n[nH]c(=S)n3C)cc2c1C | inconclusive: 1.26 µM [activator, single point] | –
CCOC(=O)CN1CC23C=CC(O2)C(C(=O)N2CCN(c4ccc(F)cc4)CC2)C3C1=O (stereo not drawn) | inconclusive: 31.6 µM [activator, partial curve] | –
CCN1CCN(c2ncc(C(=O)Nc3c(F)cc(F)cc3Br)c3ccccc23)CC1 | inconclusive: 25.1 µM [activator, partial curve] | –
COCCCNC(=O)c1ccc(N(C)S(=O)(=O)c2ccc(OC)cc2)cc1 | inactive | –
CC(=O)C1=C(C)OC(N)=C(C#N)C1c1ccco1 (stereo not drawn) | inactive | –
Nc1nonc1C(=O)NCCc1ccccc1 | inactive | –
COc1ccc(CC[N@+]2(C)COc3cc4oc(=O)cc(C)c4cc3C2)cc1OC | – | inactive: 8.28% [at 11.4 µM]
CCCCCCNC(=O)C(C#N)c1nc2ccccc2nc1N1CCOCC1 (stereo not drawn) | inconclusive: 25.1 µM [activator, single point] | –
O=C(Nc1ccccn1)c1ccc2ccccc2n1 | inconclusive: 6.31 µM [activator, single point] | –
N#CCSc1nc2c(cc1C#N)CCCC2 | inconclusive: 0.158 µM [activator, full curve, poor fit] | –
O=C(COc1nc2ccccc2nc1N1CCOCC1)N1CCc2ccccc21 | inconclusive: 39.8 µM [activator, single point] | –
CN(C)S(=O)(=O)c1ccc2nc(NC(=O)c3cccnc3)sc2c1 | inconclusive: 6.31 µM [activator, single point] | –
Cc1nc(N2CCOCC2)c2nc(-c3ccccc3)n(CCN3CCCC3)c2n1 | inconclusive: 39.8 µM [activator, single point] | –
O=C(CN1CCN(Cc2ccc(F)cc2)C1=O)NCc1cccs1 | inconclusive: 7.94 µM [activator, single point] | –
Clc1ccccc1-c1nc(N2CCNCC2)c2ccccc2n1 | inactive | –
CCCn1c(NC(=O)c2ccco2)nc2ccccc21 | inactive | –
Cc1ccc(CNC(=O)c2cccc(-n3cnnn3)c2)cc1 | inconclusive: 39.8 µM [activator, single point] | –
CS(=O)(=O)N1CCC(C(=O)Nc2ccc(Oc3ccccc3)cc2)CC1 | inactive | –
Cc1ccc(C(=O)N(CC(=O)NC2CCCC2)Cc2cccs2)s1 | inconclusive: 12.6 µM [activator, partial curve, poor fit] | –
Cc1ccc(N(Cc2ccco2)C(=O)c2cccc(S(=O)(=O)N(C)C)c2)cc1 | inactive | –
NC(=O)CNCCC(c1ccccc1)c1ccccc1 | inconclusive: 39.8 µM [activator, single point] and inconclusive: 31.6 µM [activator, single point] | –

Compound | Potency | activation
CCCCCN(CCCCC)C(=O)[C@H](CCC(=O)O)NC(=O)c1ccc(Cl)c(Cl)c1 | inconclusive: 15.8 µM [activator, partial curve] | –
Cn1c(Cn2c(=O)sc3ccccc32)nnc1SCC(=O)NCc1ccco1 | inconclusive: 39.8 µM [activator, single point] | –
O=C(Nc1cccc(F)c1)N1CC[C@@]2(CCCNC2)C1 | inactive | –
COCCNc1nc(-c2cccc(OC)c2)nc2ccccc12 | inactive | –
NC(=O)c1ccc([N+](=O)[O-])cc1 | inconclusive: 39.8 µM [activator, single point] | –
COc1ccc(OC)c(-c2cc(C(=O)Nc3c(C)nn(Cc4ccccc4C)c3C)no2)c1 | inactive | –
COc1cccc(-c2nn3c(-c4cccc(C)c4)nnc3s2)c1 | inconclusive: 31.6 µM [activator, single point] | –
COc1cccc(Cn2c(=O)c(-c3ccc(Cl)cc3)nc3cnc(N4CCOCC4)nc32)c1 | inconclusive: 39.8 µM [activator, single point] | –
c1ccc(-c2cc3c(ccc4nonc43)nn2)cc1 | inconclusive: 0.631 µM [activator, single point] | –
Cc1ccc(C(=O)N2CCN(c3cccc(Cl)c3)CC2)cc1C | inactive | –
COc1cc(C(=O)NCc2nnc(SCC(=O)N3CCc4ccccc43)o2)cc(OC)c1OC | inactive | –
COCCOC(=O)c1c(C)oc2ccc(OCc3cc(C(=O)OC)oc3C)cc12 | active: 25.1 µM | –
CCc1ccc2[nH]c(=O)c(CN(Cc3ccc(OC)cc3)Cc3nnnn3CCOC)cc2c1 | inconclusive: 25.1 µM [activator, single point] | –
Cc1cc(C)c2[nH]c(=O)c(C(c3nnnn3Cc3ccc4c(c3)OCO4)N3CCC(C)CC3)cc2c1 (stereo not drawn) | inconclusive: 12.6 µM [activator, partial curve] | –
Cc1ccccc1N1C(=O)c2cc(S(N)(=O)=O)c(Cl)cc2N[C@H]1C | inactive | –
Cn1c(SC/C=C/c2ccccc2)nnc1-c1ccco1 | inconclusive: 25.1 µM [activator, partial curve] | –
COc1ccccc1N(C(=O)Cn1nnc2ccccc21)C(C(=O)NCc1ccco1)c1ccc(C)o1 (stereo not drawn) | active: 3.98 µM | –
CC(C)C(=O)C(C)(C)CCc1ccccn1 | – | inactive: 5.93% [at 11.4 µM]
CCOc1ccccc1NC(=O)c1cccc(NC(=O)c2ccco2)c1 | inactive | –
CCCCC(CC)C(=O)Nc1ccc(Cl)cn1 (stereo not drawn) | inconclusive: 12.6 µM [activator, partial curve] | –
CC(=O)N1CCCc2cc(S(=O)(=O)NC(C(=O)NC(C)c3ccccc3)C(C)C)ccc21 (stereo not drawn) | inconclusive: 6.31 µM [activator, single point] | –
COc1ccccc1OCc1nnc(SCC(=O)NCc2ccco2)n1Cc1ccco1 | inconclusive: 3.98 µM [activator, partial curve] | –
O=C(CSc1ncn(-c2ccccc2)n1)N1CCc2ccccc21 | inconclusive: 20 µM [activator, partial curve] | –
